From PubChem BioAssay AID463173 (ICCB-Longwood Screening Facility, Harvard Medical School, 2010) come the findings set out here.

In all, about 52,000 compounds went through this assay and about 1,700 (3.3%) were called active. No stated cut-off is given here; in the data, active means survival mostly below about 52% (no sharp cut-off); inactive means mostly above about 56%. The list shows a part of the results.

This assay relates to Wild type. The assay is described as follows: S. aureus survival, RN4220 and DeltatarO strains – OD600, teichoic acid synthesis inhibitors, primary screen (AID 463173). To be noted: S. aureus RN4220 wild type/DeltatarO growth, OD600, 18 h, active compounds read low, screened at 18.75 µg/mL (by protocol).
As to `O=C(CSc1nnc(-c2ccncc2)n1-c1ccccc1)Nc1ccc(F)cc1`, the survival is inactive: 72%.

Consider `CCOc1ccccc1CNC(=O)CSc1n[nH]c(-c2ccccc2)n1`, for which the survival is inactive: 78%.

`CCOC(=O)CCc1c(C)nc2c(-c3ccccc3)c(C)[nH]n2c1=O`: the survival was inactive: 74%.

In the case of `COc1ccc(OC)c(C2C(C(=O)Nc3ccc(C)cc3C)=C(C)Nc3c(C(=O)Nc4ccc(F)cc4)cnn32)c1` (centres undefined), the survival is inactive: 70%.

`CCn1c2c(c(=O)n3ncc(C(=O)N4CCN(c5ccccc5)CC4)c13)CN(Cc1ccc(OC)cc1)CC2`: the survival is inactive: 133%.

Regarding `Cc1ccccc1OCCCC(=O)NCc1ccco1`, the survival is inactive: 102%.

In the case of `Cc1cc(=O)n(Cc2cccc(Cl)c2)c2c1c(C)nn2C`, the survival was inactive: 66%.

Consider `CC(C)c1noc(-c2ccccc2OCC(=O)Nc2ccc([N+](=O)[O-])cc2)n1`, for which the survival is inactive: 81%.

Take `COc1ccc(Cl)cc1NC(=O)CSc1nc(=O)n(Cc2ccco2)c2c1CCC2`: the survival was inactive: 67%.

In the case of `O=C(CN1CCOCC1)NCC1COc2ccccc2O1` (centres undefined), the survival was inactive: 120%.

For the compound `CCOC(=O)c1ccccc1NC(=O)c1cn(CC(C)C)c(=O)c2cc(OC)c(OC)cc12`, the survival was inactive: 69%.

As to `Cc1ccc(OCC(=O)Nc2nnc(S(=O)(=O)N3CCc4ccccc43)s2)cc1`, the survival is inactive: 24%.

For the compound `COc1ccc(N2CCN(S(=O)(=O)c3ccc(C4CCCCC4)cc3)CC2)cc1`, the survival is inactive: 82%.

As for `Cc1ccc(-n2ncc3c(Nc4ccc(Oc5ccccc5)cc4)ncnc32)c(C)c1`, the survival is inactive: 80%.

Turning to `COc1ccc(OC)c(-c2noc(CSc3nnc(-c4ccccc4)n3-c3ccccc3)n2)c1`, the survival is inactive: 85%.

As to `COc1ccc(CCCc2nnc(SCC(=O)Nc3cc(F)ccc3C)o2)cc1`, the survival was inactive: 74%.

For the compound `Fc1ccc(CNCCCSc2nnnn2-c2ccccc2)cc1`, the survival was inactive: 108%.

Regarding `COc1ccc(Cn2c(C(=O)O)c(CNCc3ccc(OC)cc3OC)c3ccc(C)cc32)cc1`, the survival is inactive: 51%.

For `COc1ccc(NC(=O)CSCc2cc(=O)c3cc(C)ccc3[nH]2)cc1`, the survival was inactive: 86%.

`CN(C(=O)CSc1nc2ccc(NC(=O)c3cccc(F)c3)cc2s1)c1ccccc1`: the survival was inactive: 77%.

For the compound `CCOc1ccc(CNC(=O)c2ccc3c(Cl)c4c(nc3c2)CCCC4)cc1`, the survival was inactive: 82%.

Regarding `CN(C)N1C(=O)/C(=C/c2cccs2)SC1=Nc1ccccc1`, the survival was inactive: 116%.

`COc1cc(Cl)c(C)cc1NC(=O)CC1Oc2ccccc2NC1=O` (centres undefined): the survival was inactive: 72%.

As for `Oc1ccc(-c2nnc(SCc3ccc(Cl)cc3)o2)cc1`, the survival was inactive: 112%.

Regarding `CCNC(=O)CCCN1C(=O)CCn2nc(-c3cccn3C)cc21`, the survival is inactive: 67%.

With `O=C(c1cc2sccc2n1Cc1ccccc1)N1CCN(c2ccccc2F)CC1`, the survival is inactive: 130%.

Turning to `COc1ccc(NC(=O)c2c(NCc3ccc(C)o3)sc3c2CCCCC3)c(OC)c1`, the survival is inactive: 136%.

With `COc1ccc(C(=O)Nc2ccc(-c3nc4ncccc4o3)cc2C)cc1Br`, the survival was inactive: 60%.

Regarding `CCn1c(=O)c2cc(C(=O)Nc3cccc(C(F)(F)F)c3)sc2c2ccccc21`, the survival was inactive: 75%.

Regarding `O=S(=O)(c1ccc(C2CCCCC2)cc1)N1CCN(c2cc(Cl)ccc2Cl)CC1`, the survival is inactive: 80%.

Turning to `COc1ccc(-n2c(/C=C/c3cccc4ccccc34)nc3ccccc3c2=O)cc1OC`, the survival is inactive: 72%.

Regarding `CCC(Sc1nc2nccnc2c(=O)n1Cc1ccccc1Cl)C(=O)NC1CCCCC1` (centres undefined), the survival was inactive: 100%.

As for `Cc1ccc2nc(NCc3ccccc3)c3nncn3c2c1`, the survival is inactive: 87%.

For `CCn1cc(C(=O)NCCc2ccc(Cl)cc2)c(=O)c2cc(S(=O)(=O)N(C)C3CCCCC3)ccc21`, the survival was inactive: 88%.

Consider `COc1ccc(CCNC(=O)c2cc3c(=O)n4cccc(C)c4nc3n2C)cc1`, for which the survival was inactive: 83%.

For `Cc1ccc(-c2csc(-c3c(N)c(C(=O)c4ccc5c(c4)OCO5)n4ccccc34)n2)cc1C`, the survival is inactive: 104%.

On to `CCOc1ccc(C2C(=O)N(C3CCCCCC3)CC(=O)N2Cc2ccc(C)cc2)cc1OC` (centres undefined), for which the survival is inactive: 72%.

Consider `Cc1cccc(N(CC(=O)NCCc2ccccc2)S(=O)(=O)c2ccccc2)c1C`, for which the survival is inactive: 72%.

Take `CCC(CC)C(=O)Nc1nnc(S(=O)(=O)N(C)c2cc(C)cc(C)c2)s1`: the survival was inactive: 89%.

On to `COc1ccc2c(C)c(CCC(=O)NCc3cccc(Cl)c3)c(=O)oc2c1`, for which the survival was inactive: 81%.

Take `Cc1cccc(CSCCNC(=O)C2CCN(S(=O)(=O)Cc3ccccc3)CC2)c1`: the survival is inactive: 98%.

As to `O=C(C[n+]1ccccc1)Nc1ccccc1`, the survival is inactive: 108%.

`COc1ccc(NC(=O)CC2Oc3ccc(C)cc3NC2=O)cc1Cl` (centres undefined): the survival was inactive: 84%.

As for `Cc1cc(C)cc(-n2ccn(CC(=O)NCCc3ccccc3)c(=O)c2=O)c1`, the survival is inactive: 83%.

Turning to `COc1cc2c(cc1OC)C(COc1ccc3c(C)cc(=O)oc3c1)N(C(=O)Cc1ccc(F)cc1)CC2` (centres undefined), the survival is inactive: 68%.

Consider `COC(=O)c1cc(-c2cc(OC)c(OC)c(OC)c2)no1`, for which the survival is inactive: 88%.

Turning to `CCOc1ccc(N(CC(=O)NCc2ccc(OC)cc2)S(=O)(=O)c2c(C)[nH]c(=O)[nH]c2=O)cc1`, the survival is inactive: 79%.

With `CCOC(=O)c1c(NC(C)=O)c2c3c(sc2n1Cc1c(C)cc(C)cc1C)CCCC3`, the survival is inactive: 88%.

For `COc1ccc(Cn2ccnc2SCC(=O)Nc2ccc3c(c2)OCCO3)cc1`, the survival is inactive: 70%.

For `Cc1ccc2c(c1)N(CC(=O)Nc1ccccc1C(F)(F)F)C(=O)c1cccnc1O2`, the survival is inactive: 143%.

Regarding `COc1cccc(C(=O)N(Cc2cccc(F)c2)C2CCS(=O)(=O)C2)c1` (centres undefined), the survival is inactive: 87%.

For `COCCNC(=S)N1CCC(NC(=O)NC23CC4CC(CC(C4)C2)C3)CC1`, the survival is inactive: 102%.

With `Cc1c(Cl)cccc1NC(=O)c1oc2ccc(S(=O)(=O)N3CCCCCC3)cc2c1C`, the survival was inactive: 72%.

`O=C(Nc1cccc(F)c1)c1ccc2oc(=O)n(Cc3ccccc3)c2c1`: the survival was inactive: 81%.

With `COc1cccc(OC)c1C(=O)Nc1ccc(-c2nc3ncccc3o2)cc1`, the survival was inactive: 88%.

Regarding `CCOC(=O)c1cc2c(=O)n3ccccc3nc2n(Cc2ccco2)c1=NC(=O)c1ccc(C(C)(C)C)cc1`, the survival was inactive: 72%.

Regarding `Cc1ccc(Sc2ccc(N3CCC(C(=O)Nc4cc(C)cc(C)c4)CC3)nn2)cc1`, the survival is inactive: 64%.

`Cc1ccc(C2CC(=O)n3nc(-c4ccc(Cl)cc4)nc3S2)cc1` (centres undefined): the survival is inactive: 99%.

In the case of `Cc1c(Cl)cccc1-n1ncc(C(=O)NCCN2CCN(C)CC2)c1C1CCN(C(=O)OC(C)(C)C)CC1`, the survival is inactive: 78%.

Take `O=C(Cn1c(=O)n(-c2ccccc2)c(=O)c2c3c(sc21)CCC3)c1ccc(F)cc1`: the survival was inactive: 76%.

As for `O=C(NCc1ccccc1)c1ccc2c(c1)N(Cc1ccccc1F)C(=O)c1ccccc1S2=O` (centres undefined), the survival is inactive: 101%.

As to `COc1cccc(CN(C(=O)COc2ccc(Cl)c(C)c2)C2CCS(=O)(=O)C2)c1` (centres undefined), the survival was inactive: 78%.

For `O=C(Nc1ccc(Cl)cc1)c1cnn2c1NC(c1ccccc1)=CC2c1ccccc1` (centres undefined), the survival was inactive: 45%.

With `CCc1ccc(NC(=O)CSc2nc3c([nH]c4ccccc43)c(=O)n2-c2ccc(C)cc2)cc1`, the survival was inactive: 159%.

On to `Cc1ccc(CNC(=O)CCS(=O)(=O)c2cc3c4c(c2)CCN4C(=O)CC3)cc1`, for which the survival was inactive: 60%.

On to `Cc1ccc(NC(=O)c2ccc(NC(=O)N3CCSc4ncccc43)cc2)c(Cl)c1`, for which the survival is inactive: 57%.

For the compound `CCN(CC)c1cc(C)c2cc(NC(=O)c3ccc(OC)c(OC)c3)ccc2n1`, the survival was inactive: 68%.

For the compound `CCOC(=O)c1scc(-c2ccccc2)c1S(=O)(=O)N1CCN(c2ccc(Cl)cc2)CC1`, the survival was inactive: 92%.

`COc1ccc(-c2cc(C)no2)cc1S(=O)(=O)N1CCN(c2cccc(C)c2)C(C)C1` (centres undefined): the survival is inactive: 73%.

Turning to `Cc1ccccc1NC(=O)NCCc1c[nH]c2ccccc12`, the survival was inactive: 66%.

In the case of `O=C(Nc1ccccc1)c1cnc(N2CCCCC2)c2ccccc12`, the survival was inactive: 59%.

As to `COc1ccccc1C(=O)Nc1c(C(=O)Nc2cc(Cl)ccc2C)sc2nc(C)cc(C)c12`, the survival was inactive: 78%.

On to `COc1cccc(CN2C(=O)c3ccccc3Sc3ccc(C(=O)NCc4ccccc4)cc32)c1`, for which the survival is inactive: 85%.

Take `COc1cccc(N2CCN(C(=O)c3cnc4c(-c5ccccc5)c(C)nn4c3C)CC2)c1`: the survival was inactive: 76%.

In the case of `Fc1ccccc1Nc1c2c(nc3ccccc13)CCC2`, the survival is inactive: 102%.

`N#CCSc1nnc(CNc2ccc(Cl)cc2)n1-c1ccccc1`: the survival was inactive: 115%.

For `COc1cccc2cc(C(=O)N3CCN(c4cc(C)ccc4C)CC3)c(=O)oc12`, the survival was inactive: 80%.

With `Cc1nc(SCC(=O)N2CCN(c3ccccc3)CC2)[nH]c(=O)c1C`, the survival was inactive: 88%.

In the case of `O=C1CC(C(=O)O)C2(CCCC2)O1` (centres undefined), the survival is inactive: 118%.

Consider `COc1ccc(N2CCN(C(=O)c3cc4sccc4n3Cc3ccccc3)CC2)cc1`, for which the survival was inactive: 108%.

As for `COc1ccc(-c2ccc(NS(=O)(=O)c3ccc(NC(C)=O)cc3)cc2)nn1`, the survival was inactive: 81%.

In the case of `COc1ccc(OC)c(NC(=O)c2c(NCc3cccs3)sc3c2CCCCC3)c1`, the survival was inactive: 80%.

As to `CCN(CC)c1ccc(NC(=O)c2c(C)nn(-c3ccc(F)cc3)c2-n2cccc2)c(C)c1`, the survival was inactive: 73%.

In the case of `CCc1ccccc1NC(=O)CN(C)S(=O)(=O)c1cccc2nsnc12`, the survival was inactive: 78%.

On to `CCOc1cc(CNC(=O)c2cc(-c3ccccc3)n[nH]2)cc(OCC)c1OCC`, for which the survival is inactive: 68%.

`COc1ccc(CCNC(=O)c2ccc3c(c2)CCN3S(=O)(=O)c2ccccc2)cc1`: the survival was inactive: 99%.

As to `CCc1ccc(NC(=O)CSc2nc3nc(C)cc(C)n3n2)cc1`, the survival is inactive: 67%.

Take `COc1ccc(-c2noc(N3CCC(C(=O)Nc4cccc(C)c4C)CC3)n2)cc1`: the survival was inactive: 84%.

Take `CCOc1cc(C(c2c(C)[nH]n(-c3ccccc3)c2=O)c2c(C)[nH]n(-c3ccccc3)c2=O)ccc1O`: the survival was inactive: 64%.
